Like-named read-outs stand apart in the source and are kept apart here.
Key:
[1] = target: T1, cynomolgus monkey CEACAM5 on CHO-k1-cynoCEACAM5 clone 8 cells (cynomolgus monkey); assay: flow cytometry, CHO-k1-cynoCEACAM5 clone 8
T1 construct: whole, on cells

[2] = target: T2, human CEACAM5 (carcinoembryonic antigen, CEA) on cells (human, UniProt P06731 35-685); assay: flow cytometry, CHO-k1-huCEACAM5 clone 17
T2 construct: endogenous on MKN45 gastric adenocarcinoma cells; full-length cDNA stably transfected in the CHO-K1 clones; also called huCEACAM5; MKN45 cells
T2 sequence: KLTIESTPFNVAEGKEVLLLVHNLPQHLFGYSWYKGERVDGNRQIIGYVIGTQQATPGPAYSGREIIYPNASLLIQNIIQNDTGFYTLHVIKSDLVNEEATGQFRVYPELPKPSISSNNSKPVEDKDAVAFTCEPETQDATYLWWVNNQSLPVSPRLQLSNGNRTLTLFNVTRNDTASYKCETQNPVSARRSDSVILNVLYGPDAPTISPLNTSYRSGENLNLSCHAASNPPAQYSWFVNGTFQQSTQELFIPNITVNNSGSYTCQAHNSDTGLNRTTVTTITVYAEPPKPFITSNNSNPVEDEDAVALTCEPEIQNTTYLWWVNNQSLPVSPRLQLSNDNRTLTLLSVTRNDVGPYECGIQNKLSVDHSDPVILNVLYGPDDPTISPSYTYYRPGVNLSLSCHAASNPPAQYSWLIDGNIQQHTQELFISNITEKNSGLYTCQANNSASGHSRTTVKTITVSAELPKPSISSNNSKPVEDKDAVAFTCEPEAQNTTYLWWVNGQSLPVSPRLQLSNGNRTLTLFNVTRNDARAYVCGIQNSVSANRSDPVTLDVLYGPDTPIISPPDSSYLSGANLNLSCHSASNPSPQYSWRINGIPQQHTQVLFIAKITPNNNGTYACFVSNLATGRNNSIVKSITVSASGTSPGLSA

[3] = target: T2, human CEACAM5 (carcinoembryonic …); assay: cell-based or functional assay; parameters: AUC of activation curve, Jurkat-hu4-1BB-NFκB-luc2, no CEA+ cells / AUC of activation curve, Jurkat-hu4-1BB-NFκB-luc2 with CHO-k1-cyno CEACAM5 clone 8: unit not given beside the values
[4] = target: human 4-1BB on Jurkat-hu4-1BB-NFκB-luc2 reporter cells (human, UniProt Q07011 24-255); assay: cell-based or functional assay; parameters: AUC of activation curve, Jurkat-hu4-1BB-NFκB-luc2, no CEA+ cells / AUC of activation curve, Jurkat-hu4-1BB-NFκB-luc2 with CHO-k1-cyno CEACAM5 clone 8: unit not given beside the values
[5] = target: T1, cynomolgus monkey CEACAM5 on …; assay: cell-based or functional assay; parameters: AUC of activation curve, Jurkat-hu4-1BB-NFκB-luc2, no CEA+ cells / AUC of activation curve, Jurkat-hu4-1BB-NFκB-luc2 with CHO-k1-cyno CEACAM5 clone 8: unit not given beside the values
[6] = target: T2, human CEACAM5 (carcinoembryonic …); assay: flow cytometry, CHO-k1-huCEACAM5 clone 11; parameters: unit not given beside the values
[7] = target: T1, cynomolgus monkey CEACAM5 on …; assay: flow cytometry, CHO-k1-cynoCEACAM5 clone 8; parameters: unit not given beside the values
[8] = target: T2, human CEACAM5 (carcinoembryonic …); assay: flow cytometry, CHO-k1-huCEACAM5 clone 11
[9] = target: T2, human CEACAM5 (carcinoembryonic …); assay: flow cytometry, CHO-k1-huCEACAM5 clone 12
[10] = target: T2, human CEACAM5 (carcinoembryonic …); assay: flow cytometry, CHO-k1-huCEACAM5 clone 11; parameters: unit not given beside the values; remark: listed apart in the source
[11] = target: T1, cynomolgus monkey CEACAM5 on …; assay: flow cytometry, CHO-k1-cynoCEACAM5 clone 8; parameters: unit not given beside the values; remark: listed apart in the source
[12] = target: T2, human CEACAM5 (carcinoembryonic …); assay: flow cytometry, CHO-k1-huCEACAM5 clone 12; remark: listed apart in the source
hu N(A2-B2)A-avi-His = target: T3, hu N(A2-B2)A-avi-His (human, biotin on the avi tag where used biotinylated); assay: SPR (Biacore T200), huN(A2-B2)A immobilised on a CM5 chip, construct injected as analyte 1
T3 construct: chimeric soluble antigen; also called hu N(A2-B2)A-avi-His B; human CEA (A2 domain)
T3 chain: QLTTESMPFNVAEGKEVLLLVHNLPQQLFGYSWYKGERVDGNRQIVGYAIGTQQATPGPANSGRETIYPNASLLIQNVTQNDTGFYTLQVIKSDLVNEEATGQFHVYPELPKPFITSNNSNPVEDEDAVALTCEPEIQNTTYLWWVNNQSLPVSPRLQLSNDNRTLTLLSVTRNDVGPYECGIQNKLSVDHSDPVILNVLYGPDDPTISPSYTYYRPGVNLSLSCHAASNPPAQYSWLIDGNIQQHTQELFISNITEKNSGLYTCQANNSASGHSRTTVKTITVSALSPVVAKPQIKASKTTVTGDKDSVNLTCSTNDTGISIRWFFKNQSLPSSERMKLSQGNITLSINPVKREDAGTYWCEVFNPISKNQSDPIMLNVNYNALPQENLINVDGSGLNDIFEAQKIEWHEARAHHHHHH
Method: All SPR experiments were performed on a Biacore T200 at 25° C. with HBS-EP as running buffer (0.01 M HEPES pH 7.4, 0.15 M NaCl, 3 mM EDTA, 0.005% Surfactant P20, Biacore, Freiburg/Germany).
Bulk refractive index differences were corrected for by subtracting the response obtained in a reference flow cell, where no protein was immobilized.

[13] = target: T1, cynomolgus monkey CEACAM5 on …; assay: flow cytometry, CHO-k1-cynoCEACAM5 clone 8; remark: listed apart in the source
[14] = target: T2, human CEACAM5 (carcinoembryonic …); assay: flow cytometry, CHO-k1-huCEACAM5 clone 13; parameters: unit not given beside the values
[15] = target: T2, human CEACAM5 (carcinoembryonic …); assay: flow cytometry, CHO-k1-huCEACAM5 clone 17; parameters: unit not given beside the values
[16] = target: T2, human CEACAM5 (carcinoembryonic …); assay: flow cytometry, CHO-k1-huCEACAM5 clone 12; parameters: unit not given beside the values
[17] = target: T2, human CEACAM5 (carcinoembryonic …); assay: flow cytometry, CHO-k1-huCEACAM5 clone 12; parameters: unit not given beside the values; remark: listed apart in the source
[18] = target: T2, human CEACAM5 (carcinoembryonic …); assay: flow cytometry, CHO-k1-huCEACAM5 clone 13
[19] = target: T2, human CEACAM5 (carcinoembryonic …); assay: flow cytometry, CHO-k1-huCEACAM5 clone 11; remark: listed apart in the source
[20] = target: T2, human CEACAM5 (carcinoembryonic …); assay: cell-based or functional assay
[21] = target: T1, cynomolgus monkey CEACAM5 on …; assay: cell-based or functional assay

UniProt Q07011, sequence (Q07011 24-255 limits assumed): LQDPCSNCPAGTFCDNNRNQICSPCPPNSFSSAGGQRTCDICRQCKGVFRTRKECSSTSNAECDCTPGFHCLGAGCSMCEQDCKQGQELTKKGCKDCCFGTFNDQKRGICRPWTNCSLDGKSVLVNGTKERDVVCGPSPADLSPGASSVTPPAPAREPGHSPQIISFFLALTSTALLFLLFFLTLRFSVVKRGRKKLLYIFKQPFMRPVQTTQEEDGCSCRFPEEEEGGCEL

EC50 [1]: 31.4 nM
EC50 [2]: 7.38 nM
AUC of activation curve, Jurkat-hu4-1BB-NFκB-luc2 with CHO-k1-human CEACAM5 clone 11 [3]: 146000
AUC of activation curve, Jurkat-hu4-1BB-NFκB-luc2 with CHO-k1-human CEACAM5 clone 12 [3]: 137000
AUC of activation curve, Jurkat-hu4-1BB-NFκB-luc2, no CEA+ cells [4]: 2040
AUC of activation curve, Jurkat-hu4-1BB-NFκB-luc2 with CHO-k1-cyno CEACAM5 clone 8 [5]: 88700
AUC [6]: 3010
AUC [7]: 2140
EC50 [8]: 31.1 nM
EC50 [9]: 21.7 nM
AUC [10]: 15000
AUC [11]: 15600
EC50 [12]: 11 nM
binding result (hu N(A2-B2)A-avi-His): binds
EC50 [13]: 41.9 nM
AUC [14]: 98400
AUC [15]: 16300
AUC [16]: 55700
AUC [17]: 7900
EC50 [18]: 15.2 nM
EC50 [19]: 10 nM
EC50, NFκB-luciferase in Jurkat-hu4-1BB-NFκB-luc2 with CHO-k1-human CEACAM5 clone 11 [20]: 0.12 nM
EC50, NFκB-luciferase in Jurkat-hu4-1BB-NFκB-luc2 with CHO-k1-human CEACAM5 clone 12 [20]: 0.08 nM
EC50, NFκB-luciferase in Jurkat-hu4-1BB-NFκB-luc2 with CHO-k1-cyno CEACAM5 clone 8 [21]: 0.17 nM
B1: CEA(A5B7)-4-1BBL (Fc fusion)
chain 1: REGPELSPDDPAGLLDLRQGMFAQLVAQNVLLIDGPLSWYSDPGLAGVSLTGGLSYKEDTKELVVAKAGVYYVFFQLELRRVVAGEGSGSVSLALHLQPLRSAAGAAALALTVDLPPASSEARNSAFGFQGRLLHLSAGQRLGVHLHTEARARHAWQLTQGATVLGLFRVTPEIPAGLGGGGSGGGGSREGPELSPDDPAGLLDLRQGMFAQLVAQNVLLIDGPLSWYSDPGLAGVSLTGGLSYKEDTKELVVAKAGVYYVFFQLELRRVVAGEGSGSVSLALHLQPLRSAAGAAALALTVDLPPASSEARNSAFGFQGRLLHLSAGQRLGVHLHTEARARHAWQLTQGATVLGLFRVTPEIPAGLGGGGSGGGGSRTVAAPSVFIFPPSDRKLKSGTASVVCLLNNFYPREAKVQWKVDNALQSGNSQESVTEQDSKDSTYSLSSTLTLSKADYEKHKVYACEVTHQGLSSPVTKSFNRGE[human IgG1 Fc with changes not spelt out]
chain 2: REGPELSPDDPAGLLDLRQGMFAQLVAQNVLLIDGPLSWYSDPGLAGVSLTGGLSYKEDTKELVVAKAGVYYVFFQLELRRVVAGEGSGSVSLALHLQPLRSAAGAAALALTVDLPPASSEARNSAFGFQGRLLHLSAGQRLGVHLHTEARARHAWQLTQGATVLGLFRVTPEIPAGLGGGGSGGGGSASTKGPSVFPLAPSSKSTSGGTAALGCLVEDYFPEPVTVSWNSGALTSGVHTFPAVLQSSGLYSLSSVVTVPSSSLGTQTYICNVNHKPSNTKVDEKVEPKSC
heavy: EVKLVESGGGLVQPGGSLRLSCATSGFTFTDYYMNWVRQPPGKALEWLGFIGNKANGYTTEYSASVKGRFTISRDKSQSILYLQMNTLRAEDSATYYCTRDRGLRFYFDYWGQGTTLTVSSASTKGPSVFPLAPSSKSTSGGTAALGCLVKDYFPEPVTVSWNSGALTSGVHTFPAVLQSSGLYSLSSVVTVPSSSLGTQTYICNVNHKPSNTKVDKKVEPKSCDKTHTCPPCPAPEAAGGPSVFLFPPKPKDTLMISRTPEVTCVVVDVSHEDPEVKFNWYVDGVEVHNAKTKPREEQYNSTYRVVSVLTVLHQDWLNGKEYKCKVSNKALGAPIEKTISKAKGQPREPQVCTLPPSRDELTKNQVSLSCAVKGFYPSDIAVEWESNGQPENNYKTTPPVLDSDGSFFLVSKLTVDKSRWQQGNVFSCSVMHEALHNHYTQKSLSLSP
light: QTVLSQSPAILSASPGEKVTMTCRASSSVTYIHWYQQKPGSSPKSWIYATSNLASGVPARFSGSGSGTSYSLTISRVEAEDAATYYCQHWSSKPPTFGGGTKLEIKRTVAAPSVFIFPPSDEQLKSGTASVVCLLNNFYPREAKVQWKVDNALQSGNSQESVTEQDSKDSTYSLSSTLTLSKADYEKHKVYACEVTHQGLSSPVTKSFNRGEC
notes: anti-CEA Fc hole chain and light chain; P329G LALA
